PubChem BioAssay (NCATS)
The other results are listed elsewhere or left out. Further columns of the screen follow, without active or inactive calls. The list favours compounds with an active or inconclusive main result. Potencies come from curve fits of mixed quality, noted in brackets.

target: Histamine N-methyltransferase (Homo sapiens) (UniProt P50135); test: Confirmatory Screen for Target Class Profiling of Small Molecule Inhibitors of Methyltransferases (AID 1745852); conditions: MTase-Glo luminescence, SAH detection, recombinant enzyme; measured here: HNMT inhibition potency;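 further: inhibitor potency for blocking SAH production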
Sequence of UniProt P50135 (P50135 whole entry, looked up): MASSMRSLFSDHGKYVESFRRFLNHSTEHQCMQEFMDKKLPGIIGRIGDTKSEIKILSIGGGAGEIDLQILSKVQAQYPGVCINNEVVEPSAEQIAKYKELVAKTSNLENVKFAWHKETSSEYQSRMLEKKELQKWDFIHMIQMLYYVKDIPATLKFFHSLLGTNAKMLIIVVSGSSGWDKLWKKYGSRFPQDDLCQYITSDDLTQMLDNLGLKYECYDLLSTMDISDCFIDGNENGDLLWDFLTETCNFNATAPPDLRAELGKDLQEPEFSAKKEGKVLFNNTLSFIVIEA
Tags describe the fitted curve by direction and shape.

SMILES | IC50
COc1ccc(OC)c(CN2CCNc3cc(-c4ccnc(C)c4)ncc3C2)c1 | 11.1 µM [falling, full curve]
CCNc1nccc(N2CCC(CC(=O)NCC(C)C)CC2)n1 | 17.1 µM [falling, partial curve]
Cc1ccc(S(=O)(=O)c2nnn3c2nc(N2CCC(N4CCCCC4)CC2)c2ccccc23)cc1C | 0.764 µM [falling, full curve]
COc1cc2c(NC3CCN(C)CC3)nc(N3CCCN(C)CC3)nc2cc1OCCCN(C)C | 21.7 µM [falling, partial curve]
NC(=O)C1(N2CCCCC2)CCN(c2nc3c(S(=O)(=O)c4ccccc4)nnn3c3ccccc23)CC1 | 10.8 µM [falling, partial curve]
CC(C)c1nccn1CCCNC(=O)c1ccc(-c2cccc(F)c2)nc1 | 21.5 µM [falling, partial curve]
Cn1ccc2c(C(=O)NCCc3cnc[nH]3)nc(-c3ccc(N4CCOCC4)cc3)cc21 | 31.2 µM [falling, partial curve]
CC(=O)Nc1cccc(-c2cc3c(cn2)CN(Cc2ccccc2)CCN3)c1 | 0.879 µM [falling, full curve]
C=CC(=O)Nc1ccc(CN2C(=O)N(c3cc(OC)cc(OC)c3)Cc3cnc(Nc4ccc(N5CCN(C)CC5)cc4)nc32)cc1 | 12.1 µM [falling, partial curve]
Cc1cnc(C2CC2)n1C1CCCN(Cc2ccccc2)C1 (stereo not given) | 15.2 µM [falling, partial curve]
